The whole screen tested about 45,000 compounds, of which about 200 (0.44%) were called active. Inconclusive results (about 7%) are left out. Calls follow the shape of the dose curve; as a rule, active = well fitted activation curve with a large enough effect; inconclusive = small, poorly fitted or top-dose-only effect; inactive = no such curve, though single readings can be large or run the other way. The list shows a part of the results.
Experiment: qHTS of TDP-43 Inhibitors: NCGC Sytravon Library Screen; also: 0% is about no effect; nearly all actives have a fitted effect of over 55% in size
Settings: yeast TDP-43 toxicity rescue, BacTiter-Glo growth, 24 h; series mostly up to 46.1 µM; growth rescue (activation): at the top concentration
Outline: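 TDP-43-expressing yeast, pregrown in raffinose, seeded at OD600 0.02 in galactose medium with compound for 24 hr at 30 deg C. Growth read by BacTiter-Glo luminescence, so rescue of toxicity appears as activation.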

Structure (SMILES)	growth rescue (activation)
Cc1cc(C)n2c(SCC(=O)Nc3cccc(S(N)(=O)=O)c3)nnc2n1	inactive: -8.56%
CCNC(=O)CSc1nnc(-c2cccs2)o1	inactive: 10.1%
COc1ccccc1C(=O)NC(=S)Nc1ccc2[nH]c(=O)[nH]c2c1	inactive: 8.32%
COc1cc(/C=C(\C#N)C(=O)NCC2CCCO2)cc(OC)c1OC (configuration not stated)	inactive: 22.8%
O=C1NCC(c2ccccc2)C1C(=O)N/N=C\c1ccc(-c2ccc(Cl)c(Cl)c2)o1 (configuration not stated)	inactive: 30.3%
Cc1cccc(NC(=O)Cn2cc(C(=O)C3CC3)c3ccccc32)c1C	inactive: 19.2%
O=C(c1ccc(C(F)(F)F)cc1)C1CCCN(C(=O)CCc2cnccn2)C1 (configuration not stated)	inactive: 10.8%
CCCNC(=O)C1(C)CCCN(C(=O)c2cccc(C#N)c2)C1 (configuration not stated)	inactive: 1.45%
COc1ccccc1CNC(=O)CN1CCN(S(=O)(=O)c2cccs2)CC1	inactive: -0.0566%
CCc1c(C)sc(NC(=S)Nc2nc(C)cc(C)n2)c1C(=O)OC	inactive: 27.9%
O=C(C[n+]1ccc(C(=O)NCc2ccccc2)cc1)c1ccc(OC(F)F)cc1	inactive: 19.3%
O=C(O)CN1C(=O)/C(=C\c2cn(CC(=O)N3CCOCC3)c3ccccc23)SC1=S	inactive: 10%
COCC(C)n1c(C)cc(C(=O)CSc2nnnn2-c2ccc(O)cc2)c1C (configuration not stated)	inactive: -1.07%
O=C(Nc1cccc(Cl)c1)c1cccnn1	inactive: 1.29%
COC(=O)c1sccc1NC(=O)COc1ccccc1Cl	inactive: 14.4%
CCOc1ccccc1N(CC(=O)Nc1ccccc1C(=O)N1CCCC1)S(C)(=O)=O	inactive: -7.28%
COc1ccc(N2CCN(C(=O)C3CCN(S(=O)(=O)c4ccccc4)CC3)CC2)cc1	inactive: 8.01%
CCOC(=O)C1(CCCc2ccccc2)CCN(C(=O)c2cnn(CC)c2)CC1	inactive: 13.9%
CC1CCc2c(sc(NC(=O)C3c4ccccc4Oc4ccccc43)c2C(N)=O)C1 (configuration not stated)	inactive: 8.78%
CCc1ccc(OCC(=O)N(Cc2ccc(C)o2)C2CCS(=O)(=O)C2)cc1 (configuration not stated)	inactive: 4.46%
CCc1ccccc1NC(=O)N1CCc2c([nH]c3ccccc23)C1c1ccc(C)cc1 (configuration not stated)	inactive: -13.2%
Fc1ccc2c(c1)C(c1ccncc1)=NNC(c1ccccc1)=N2	inactive: 7.48%
O=C(COc1ccc(Br)cc1CO)N1CCCc2ccccc21	inactive: 18%
COc1ccc(C(=O)/C=C/Nc2ccc(S(N)(=O)=O)cc2)cc1OC	inactive: -29.2%
O=C(NNc1cc(N2CCOCC2)nc(N2CCOCC2)n1)c1ccc([N+](=O)[O-])cc1	inactive: 2.06%
COC(=O)c1ccccc1NC(=O)CN(C)Cc1ccccc1	inactive: 8.58%

Structure (SMILES)	growth rescue (activation)
Cc1cccc(N(CC(O)CN2CCCC2)S(=O)(=O)c2ccccc2)c1 (configuration not stated)	inactive: 6.22%
O=C(O)CCC(=O)Nc1cccc(-c2csc(-c3ccccc3)n2)c1	inactive: 0.673%
O=C(c1cccc(NS(=O)(=O)c2ccc(F)c(F)c2)c1)N1CCN(C(c2ccccc2)c2ccccc2)CC1	inactive: 5.36%
CC1(C)CC(=O)C(C2C3=C(CC(C)(C)CC3=O)Oc3ccc4ccccc4c32)C(=O)C1 (configuration not stated)	inactive: -5.91%
CC(C)Cc1nnc(NC(=O)CCC(=O)N2CCN(S(=O)(=O)c3ccccc3)CC2)s1	inactive: -25.6%
COc1ccc(CCNC(=O)CSCc2c(F)cccc2Cl)cc1OC	inactive: 27.4%
O=C(COC(=O)CC1CC2CCC1C2)Nc1c(F)cccc1F (configuration not stated)	inactive: -36.9%
CN(C)S(=O)(=O)c1cccc(NC(=O)CN(CCO)CC(=O)Nc2cccc(S(=O)(=O)N(C)C)c2)c1	inactive: 11.6%
COc1ccc(C(NC(=O)C2CCN(Cc3ccc(Oc4ccccc4)cc3)CC2)c2ccccn2)cc1 (configuration not stated)	inactive: 10.2%
CCN(CC)c1ccc(/C=C2\C(=O)c3ccc(C(=O)O)cc3C2=O)cc1	inactive: -0.239%
CCN(c1ccccc1)S(=O)(=O)c1ccc(Cl)c(C(=O)O)c1	inactive: 9.87%
CC(C)c1ccc(N(C(=O)c2snc(C(N)=O)c2N)C(C(=O)NC2CCCC2)c2ccncc2)cc1 (configuration not stated)	inactive: 10.3%
CC(=O)Nc1ccc(/C=C(\C#N)S(=O)(=O)c2ccc(C)cc2)cc1	inactive: 5.68%
C/C(=N\NC(=O)c1ccc(F)cc1)c1ccc(N2CCOCC2)cc1	inactive: 12.1%
Cc1[nH]c2ccc(-c3n[nH]c(=S)n3-c3ccccc3)cc2c1C	inactive: -7.58%
CC(C)c1ccc(NC2=NCC(=O)N2Cc2cccs2)cc1	inactive: -10.8%
COC(=O)c1ccccc1NC(=O)C1CCN(C(=O)c2ccc(OC)cc2)CC1	inactive: 15.1%
CC(=O)Nc1ccc(CN2CCc3c([nH]c4ccccc34)C2c2ccccn2)cc1 (configuration not stated)	inactive: -2.28%
Cc1cccc(NC(=S)NC2CC3CCCC(C2)N3Cc2ccccc2)c1C (configuration not stated)	inactive: 6.43%
O=C(Nc1cccc(O)c1)C1CC(c2ccc(Cl)cc2)=NO1 (configuration not stated)	inactive: 7.82%
COc1ccc(Cl)cc1S(=O)(=O)N1CCC(C(=O)NCC2CCCO2)CC1 (configuration not stated)	inactive: -1.41%
Cc1ccc(P(=O)(CSC(=N)N)c2ccc(C)cc2)cc1	inactive: 2.81%
CN1/C(=C\C(=O)C[n+]2cccc(C(N)=O)c2)C(C)(C)c2ccccc21	inactive: 9.56%
Cc1ccc(NC(=O)c2ccc(NC(=O)c3ccccc3)cc2)cc1C	inactive: 8.48%
Cn1c(N)c(C(=O)COC(=O)CCCOc2ccc(Cl)cc2Cl)c(=O)n(C)c1=O	inactive: 15.2%
COc1ccc(OC)c(S(=O)(=O)NCC2CCCO2)c1 (configuration not stated)	inactive: 2.45%

Reference: PubChem BioAssay AID1347073 (National Center for Advancing Translational Sciences (NCATS), 2019)
